# In paper PMC4336329 (PLoS ONE, 2015):
# Screen size: about 310,000 compounds; about 14,000 (4.5%) showed an effect of 50% or more. Effects have a minus sign here. This is one part of the list.
# Target: human ether-à-go-go-related gene (hERG) potassium channel (human, UniProt Q12809)
# Assay: primary screen, population patch clamp on CHO cells stably expressing hERG
# 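Note: peak tail current of the secondary pulse compared with the same well before compound.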
# Chain of human ether-à-go-go-related gene (hERG) potassium channel (Q12809 whole entry, looked up): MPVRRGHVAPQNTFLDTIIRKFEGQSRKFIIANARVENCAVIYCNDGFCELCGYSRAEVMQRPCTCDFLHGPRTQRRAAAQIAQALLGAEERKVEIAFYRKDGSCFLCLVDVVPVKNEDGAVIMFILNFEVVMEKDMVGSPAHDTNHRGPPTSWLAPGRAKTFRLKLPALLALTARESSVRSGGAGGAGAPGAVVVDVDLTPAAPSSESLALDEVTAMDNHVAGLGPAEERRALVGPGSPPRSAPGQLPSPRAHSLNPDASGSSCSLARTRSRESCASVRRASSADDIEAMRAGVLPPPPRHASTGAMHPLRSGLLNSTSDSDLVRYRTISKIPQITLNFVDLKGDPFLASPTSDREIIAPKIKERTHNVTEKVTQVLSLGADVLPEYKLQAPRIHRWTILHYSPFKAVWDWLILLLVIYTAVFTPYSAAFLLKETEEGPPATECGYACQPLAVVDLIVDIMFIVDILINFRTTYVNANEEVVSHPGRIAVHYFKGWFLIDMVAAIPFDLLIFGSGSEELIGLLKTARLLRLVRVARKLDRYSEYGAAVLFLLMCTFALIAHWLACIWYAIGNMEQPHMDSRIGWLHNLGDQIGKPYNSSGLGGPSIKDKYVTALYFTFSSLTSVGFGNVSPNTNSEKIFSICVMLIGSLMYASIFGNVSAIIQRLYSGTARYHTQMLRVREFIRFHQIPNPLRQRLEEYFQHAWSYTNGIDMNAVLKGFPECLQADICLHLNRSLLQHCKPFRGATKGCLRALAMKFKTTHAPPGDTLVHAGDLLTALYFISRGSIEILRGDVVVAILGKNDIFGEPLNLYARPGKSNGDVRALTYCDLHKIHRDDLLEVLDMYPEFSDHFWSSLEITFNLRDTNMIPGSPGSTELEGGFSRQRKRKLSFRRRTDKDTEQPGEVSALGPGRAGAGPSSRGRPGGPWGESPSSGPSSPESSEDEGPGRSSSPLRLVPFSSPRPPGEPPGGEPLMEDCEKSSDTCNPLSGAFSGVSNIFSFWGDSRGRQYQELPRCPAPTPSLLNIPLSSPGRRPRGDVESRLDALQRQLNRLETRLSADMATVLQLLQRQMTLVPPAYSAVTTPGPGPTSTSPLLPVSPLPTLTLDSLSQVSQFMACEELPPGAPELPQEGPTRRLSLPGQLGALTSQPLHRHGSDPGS
row,SMILES,"hERG current change (%, negative = inhibition) at 10uM"
1,COc1ccc(CCNc2ncnc3c2oc2ccccc23)cc1OC.Cl,0.357%
2,Cc1nc(SC(C(N)=O)c2ccccc2)c(C#N)c(C)c1C (centres unmarked),11.1%
3,CC(C)(CN)CC(=O)O.Cl,11.6%
4,Cc1ccc(S(=O)(=O)N2CCN(C(=O)COc3ccc(Br)cc3)CC2)cc1,-9.5%
5,CNCc1c(C)nn(-c2ccccc2)c1C,9.96%
6,Cc1ccc(NS(=O)(=O)c2ccc3[nH]c(=O)c(=O)[nH]c3c2)cc1Cl,28.1%
7,COc1cccc(CNC(=O)C(=O)NCC(c2ccco2)N2CCOCC2)c1 (centres unmarked),5.02%
8,COc1cccc(NC(=O)Nc2cccnc2)c1,1.55%
9,CC(=O)N1C(=O)CC(C)N(C(C)=O)c2ccc([N+](=O)[O-])cc21 (centres unmarked),-9.08%
10,CN(C(=O)CN1C(=O)c2ccccc2S1(=O)=O)c1ccccc1C(=O)O,25.6%
11,O=C(COC(=O)c1sc2ccccc2c1Cl)NC1CCCCC1,17.1%
12,S=C(NCCN1CCOCC1)Nc1ccc(Br)cc1,5.71%
13,Cc1c(Cl)cccc1Nc1nc(N)nc(CN2CCc3ccccc3C2)n1,-33%
14,COc1ccc2nc(N3CCCC(C(=O)NCCc4ccc(OC)c(OC)c4)C3)sc2c1 (centres unmarked),-19.1%
15,N#Cc1ccc(OCC(=O)NC2=NCCS2)cc1,16.6%
16,COCCNc1cc(C)nc2c3c(C)cc(C)nc3nn12,-17.5%
17,COC(=O)[C@@H]1CCCN1C(=O)CCc1nnc(CCC2CCCCC2)o1,-6.51%
18,O=C(COC(=O)Cc1ccc(Cl)cc1)Nc1ccc(OC(F)F)cc1,4.27%
19,CCn1cnc2c1c(=O)n(CC(=O)Nc1ccc3c(c1)OC(F)(F)O3)c(=O)n2Cc1ccccc1,-9.18%
20,O=C1C2C(C(=O)N1/N=C/c1cc(Br)cc([N+](=O)[O-])c1O)C1C=CC2C12CC2 (centres unmarked),-3.53%
21,CC(C)CCOCc1nc2sc3c(c2c(=O)[nH]1)CCC(C)C3 (centres unmarked),-8.65%
22,Cc1nn(C)cc1/C=N/NC(=O)c1ccco1,3.44%
23,COc1ccc(OC)c(NC(=O)COC(=O)c2n[nH]c3ccccc23)c1,-7.8%

row,SMILES,"hERG current change (%, negative = inhibition) at 10uM"
1,COc1ccc(C2CCCN2C(=O)c2cccs2)cc1 (centres unmarked),11%
2,Cc1ccccc1OCC(=O)Nc1cccc(S(=O)(=O)NC2=NCCC2)c1,-27.5%
3,Nc1nc(SCC(=O)N2CCCCCC2)[nH]c(=O)c1NC(=O)c1ccco1,9.72%
4,CCOC(=O)C1CCN(/C=C2\C(=O)NC(=S)N(CC)C2=O)CC1,10%
5,CC(=O)Oc1ccccc1N(C(C)=O)S(=O)(=O)c1ccc2ccccc2c1,7.06%
6,CN1CCN(C(=S)Nc2ccc([N+](=O)[O-])cc2)CC1,-23.1%
7,CC(/C=C/c1ccc(N(C)C)cc1)=N/N=C1/NC(=O)CC(C(=O)Nc2ccc(Cl)cc2)S1 (centres unmarked),5.34%
8,COC(=O)C1=C(c2cccc(OC)c2OC)C[C@@H]2CC[C@H]1N2C(=O)NC1CC1,16.7%
9,CCn1ccnc1CN(C)C(=O)CCc1nnc(CCC2CCCCC2)o1,-27.7%
10,Cc1ccc(CNS(=O)(=O)c2c(C)[nH]c(C)c2C(=O)N2CCCCC2)o1,-0.256%
11,O=C(Cn1c(=O)cnc2ccccc21)NNC(=O)c1ccccc1Cl,4.84%
12,Cc1cc(C)n(Cc2ccc(C(=O)NN)o2)n1,10.1%
13,S=c1nc(-c2csc3c2CCCC3)[nH][nH]1,23.2%
14,Cc1noc(C)c1C(=O)OC(C(=O)NC1CCCC1)c1ccc(F)cc1 (centres unmarked),5.75%
15,CCCC1=C(C(=O)OCC)C(c2cc(Cl)cc(OC)c2OCC(=O)OCC)NC(=O)N1 (centres unmarked),-6.07%
16,CCOc1ccc(S(=O)(=O)N(CC(=O)Nc2cccnc2)c2ccc(F)cc2)cc1,2.96%
17,Cc1ccc(NC(=O)CCCCCC2NC(=O)NC2C)cc1 (centres unmarked),0.514%
18,Cc1nc(N)[nH]c(=O)c1CCC(=O)OCC(C)C,8.83%
19,COCCCN1C(=O)c2[nH]nc(-c3ccccc3O)c2C1c1cccc(Cl)c1 (centres unmarked),20.9%
20,Cc1ccc(NC(=O)Cc2ccc(-c3ccccc3)cc2)nc1,12.9%
21,COC(=O)[C@H](Cc1ccccc1)NC(=O)Nc1ccc(OC)cc1,5.76%
22,COC(=O)Nc1ccc(S(=O)(=O)N(CCO)CCO)cc1,-3%
23,CCOC(=O)c1c(NC(=O)Cc2cccs2)sc(C(=O)NC2CCCC2)c1C,-3.25%

row,SMILES,"hERG current change (%, negative = inhibition) at 10uM"
1,CC12CN3CC(C)(CN(C1)C3c1ccc(F)cc1)C2 (centres unmarked),-36.1%
2,O=c1c2c(-c3ccccc3)csc2ncn1/N=C/c1ccc(O)c([N+](=O)[O-])c1,-3.75%
3,C/C(N)=C(/C#N)C(=O)CN1CCCCC1,8.56%
4,CC(Sc1nnc(Cc2ccc3c(c2)OCO3)o1)C(N)=O (centres unmarked),7.62%
5,Cc1ccc(C(=O)CSc2nc3cccnc3n2C)cc1,5.94%
6,C/C(=N\NC(N)=S)c1ccc(Cl)s1,12.4%
7,C[C@@H]1CCC[C@@]2(O[C@H](CCO)C[C@H](O)[C@H]2O)O1,6.68%
8,CCOc1nc(-c2ccccc2)c2cc(Br)ccc2n1,20.5%
9,COc1ccc(/C=N\NC(=O)c2cc(OCC(F)(F)F)ccc2OCC(F)(F)F)cc1,-0.329%
10,CC(C)(C)N=C1NN=C(c2ccc(Cl)cc2)CS1,-3.18%
11,Cc1ccc2oc(=O)n(CC(=O)OC(C)C)c2c1,-7.59%
12,CCOC(=O)N/N=C\C=C\c1ccc2c(c1)OCO2,-6.51%
13,COc1cccc(-c2nc(CS(=O)(=O)CC(=O)Nc3ccc(C(C)=O)cc3)c(C)o2)c1,10.5%
14,CC(NC(=O)c1sc2cc([N+](=O)[O-])ccc2c1Cl)C(C)(C)C (centres unmarked),-0.962%
15,COc1cccc(/C=C/C(=O)NCc2ccc3c(c2)OCO3)c1,-32%
16,NC(=O)CN1C(=O)NC2(CCOc3ccccc32)C1=O (centres unmarked),22.7%
17,COCCN(C(=O)COC(=O)C(c1ccccc1)c1ccccc1)c1c(N)n(Cc2ccccc2)c(=O)[nH]c1=O,-10.6%
18,CCOCCn1c(=O)c2c(nc3n2CC(C)CN3Cc2ccccc2)n(C)c1=O (centres unmarked),-49.5%
19,O=C(Nc1ccccn1)c1ccc(Br)s1,10.5%
20,Nc1nc(CSc2nc3ccccc3s2)nc(N2CCCCC2)n1,14.8%
21,Cc1[nH]c(C)c(S(=O)(=O)NCCc2ccc(S(N)(=O)=O)cc2)c1C(=O)N1CCCC1,20.5%
22,CC(=O)c1ccc(NC(=S)Nc2cccc3cnccc23)cc1,4.95%
23,CC(=O)N1c2ccc(S(=O)(=O)N3CCC(C(=O)NC4CCCCC4)CC3)cc2CC1C (centres unmarked),15.4%

row,SMILES,"hERG current change (%, negative = inhibition) at 10uM"
1,OC(COCc1ccc(Cl)cc1)CN1CCN(CC(O)COCc2ccc(Cl)cc2)CC1 (centres unmarked),-75.2%
2,CC1CN(CCc2ccccc2)c2nc3c(c(=O)n(CC(N)=O)c(=O)n3C)n2C1 (centres unmarked),2.53%
3,CC(C)(C)C(=O)/C(C#N)=C/c1cccs1,7.48%
4,Cc1ccccc1-c1nc(CS(=O)(=O)CC(=O)N2CCc3ccccc3C2)c(C)o1,-23.3%
5,CC(=O)NCc1ccc(S(=O)(=O)N/N=C/c2ccc(Br)cc2)cc1,27.3%
6,CCN(CC(=O)Nc1c(F)cccc1F)C(=O)CSCc1c(C)noc1C,13.2%
7,COc1cccc(NP(=O)(Oc2ccccc2)Oc2ccccc2)c1,-11.9%
8,O=C(CC(=O)Nc1ccccc1C(F)(F)F)Nc1ccccc1C(F)(F)F,9.61%
9,CC(C)CC[n+]1ccccc1/C=C/c1ccc(N(C)C)cc1.[I-],-71.3%
10,Cc1csc(NC(=O)CSc2nc3[nH]ncc3c(=O)[nH]2)n1,38.1%
11,CS(=O)(=O)N(CC(=O)N1CCCC1)c1cccc(Cl)c1,-1.53%
12,CC(/C=C/c1ccc(N(C)C)cc1)=N\N=C(/N)SC1CC(=O)N(c2ccc(C(=O)O)cc2)C1=O (centres unmarked),6.9%
13,NC(=O)c1cc(N)ccc1N1CCCC1,-2.18%
14,CC(=O)O.Cc1ccc2nc(N3C(=O)C(O)=C(C(=O)c4cc5ccccc5o4)C3c3cccs3)sc2c1 (centres unmarked),6.24%
15,C#CCOCCOCCOCCNc1nc(N2CCN(C(=O)[C@H](CCCC[NH3+])n3cc(CCCC)nn3)CC2)nc(N2CCN(C(=O)[C@H](CCCC[NH3+])n3cc(CCC(=O)O)nn3)CC2)n1.[Cl-],17.4%
16,Cc1ccc(S(=O)(=O)N2CCCCC2)cc1C(=O)NC1CC(C)(C)NC(C)(C)C1,2.27%
17,O=C(NCCc1ccccc1)c1ccccc1[N+](=O)[O-],6.08%
18,Cc1ccc(N(C)S(=O)(=O)c2cccc(C(=O)NC3CC(C)(C)NC(C)(C)C3)c2)cc1,-30.1%
19,Cn1c(C(=O)OC(C(=O)NC2CCCC2)c2cccnc2)cc2sccc21 (centres unmarked),1.52%
20,COCc1c(C(=O)N2CCN(Cc3ccc4c(c3)OCO4)CC2)oc2ccccc12,-40.8%
